Consider 32 variants from the GPR68 mutational scans of Howard et al. (2025).

B1: GPR68, Q15743 (parent)
chain: MGNITADNSSMSCTIDHTIHQTLAPVVYVTVLVVGFPANCLSLYFGYLQIKARNELGVYLCNLTVADLFYICSLPFWLQYVLQHDNWSHGDLSCQVCGILLYENIYISVGFLCCISVDRYLAVAHPFRFHQFRTLKAAVGVSVVIWAKELLTSIYFLMHEEVIEDENQHRVCFEHYPIQAWQRAINYYRFLVGFLFPICLLLASYQGILRAVRRSHGTQKSRKDQIQRLVLSTVVIFLACFLPYHVLLLVRSVWEASCDFAKGVFNAYHFSLLLTSFNCVADPVLYCFVSETTHRDLARLRGACLAFLTCSRTGRAREAYPLGAPEASGKSGAQGEEPELLTKLHPAFQTPNSPGSGGFPTGRLA

Scores with a large standard error are left out. Not listed are two conditions whose scores span a narrow range. Names with del lack the residues named; names with ins carry added residues between the positions named. For some of these results: The data file names ogerin without a concentration.

The variants in data set [1] derive from B1. Kind of data set: cAMP reporter score (Enrich2 score, wild type = 0); higher = more signal; HEK293T, FACS bins.
Data set [2] covers variants of B1. Kind of data set: surface expression score (Enrich2 score, wild type = 0); higher = more signal; HEK293T, FACS bins.

For A239_C240insGSG, the cAMP reporter score was -1.65 in data set [1] (pH 5.5); -2.65 in data set [1] (pH 6, modulator: ogerin); -2 in data set [1] (pH 6.5, modulator: ogerin). For the same variant, in data set [2], the surface expression score was -2.53.
Regarding Y244_H245insGSG, the cAMP reporter score in data set [1] (pH 5.5) was -1.68; in data set [1] (pH 6), -0.06; in data set [1] (pH 6, modulator: ogerin), -1.3; in data set [1] (pH 6.5, modulator: ogerin), -0.786. The surface expression score in data set [2] was -2.39.
Turning to L248_L249insGS, the cAMP reporter score in data set [1] (pH 5.5) is -0.885; in data set [1] (pH 6) it was -1.48; in data set [1] (pH 6.5, modulator: ogerin), -0.822. Also, in data set [2], the surface expression score was -2.92.
With L247del, the cAMP reporter score in data set [1] (pH 5.5) is -1.35; in data set [1] (pH 6), -0.985; in data set [1] (pH 6, modulator: ogerin) it was -1.57; in data set [1] (pH 6.5, modulator: ogerin), -1.46. Also, the surface expression score in data set [2] is -1.35.
On to L242_Y244del, for which the cAMP reporter score in data set [1] (pH 5.5) is -0.878; in data set [1] (pH 6), -1.52; in data set [1] (pH 6, modulator: ogerin), -1.76; in data set [1] (pH 6.5, modulator: ogerin), -1.88. The surface expression score in data set [2] is -2.92.
For F241_P243del the same measures were -1.98, -1.51, -2.24, -1.12 and -2.08.
For L242_P243del the same measures were -1.44, -1.09, -2.13, -0.914 and -2.5.
In the same order, the values of L249_V250insG are -1.1, -0.967, -1.92, -1.03 and -2.35.
For the variant L247_L248insGS, the cAMP reporter score in data set [1] (pH 5.5) is -1.86; in data set [1] (pH 6), -0.991; in data set [1] (pH 6, modulator: ogerin), -1.73; in data set [1] (pH 6.5, modulator: ogerin) it was -1.11. In addition, in data set [2], the surface expression score is -2.81.
For L249_V250del the same measures were -1.36, -0.315, -2, -1.19 and -2.16.
In the same order, the values of F241_L242insGS are -1.87, -1.11, -1.21, -1.58 and -2.42.
For L249H the same measures were -1.7, -0.472, -1.85, -1.68 and -2.
With L249T, the cAMP reporter score in data set [1] (pH 5.5) was -1.46; in data set [1] (pH 6) it was 0.601; in data set [1] (pH 6, modulator: ogerin), -1.35; in data set [1] (pH 6.5, modulator: ogerin), -0.445. The surface expression score in data set [2] is -1.
Take L249Q: the cAMP reporter score was -1.21 in data set [1] (pH 5.5); -1.22 in data set [1] (pH 6); -2.08 in data set [1] (pH 6, modulator: ogerin); -0.081 in data set [1] (pH 6.5, modulator: ogerin). For the same variant, the surface expression score in data set [2] was -1.58.
Regarding L249G, the cAMP reporter score in data set [1] (pH 5.5) was -0.107; in data set [1] (pH 6.5, modulator: ogerin), -0.954. In addition, in data set [2], the surface expression score is -1.57.
With L249V, the cAMP reporter score in data set [1] (pH 5.5) was -0.416; in data set [1] (pH 6), -1.17; in data set [1] (pH 6, modulator: ogerin), -0.568; in data set [1] (pH 6.5, modulator: ogerin) it was -0.867. In addition, in data set [2], the surface expression score was -0.348.
For L249M the same measures were -0.259, 0.447, -0.74, -0.717 and -0.796.
For L249S the same measures were -0.541, -0.756, -1.45, -1.48 and -2.14.
For the variant L249P, the cAMP reporter score in data set [1] (pH 5.5) is -1.72; in data set [1] (pH 6) it was -1.25; in data set [1] (pH 6, modulator: ogerin), -1.31; in data set [1] (pH 6.5, modulator: ogerin), -1.33.
Consider L249R, for which the cAMP reporter score in data set [1] (pH 5.5) is -2.35; in data set [1] (pH 6) it was -1.67; in data set [1] (pH 6, modulator: ogerin), -1.59; in data set [1] (pH 6.5, modulator: ogerin), -1.28. The surface expression score in data set [2] was -1.74.
For L249C the same measures were -0.556, -1.45, -0.578, -1.15 and -1.71.
For L249F the same measures were 0.912, 0.242, 1, -0.406 and 1.45.
For L249A the same measures were -0.005, -1.18, -0.714, -1.02 and -1.
Turning to L249K, the cAMP reporter score in data set [1] (pH 5.5) was -1.65; in data set [1] (pH 6), -0.326; in data set [1] (pH 6, modulator: ogerin) it was -1.04; in data set [1] (pH 6.5, modulator: ogerin) it was -1.02. Further, in data set [2], the surface expression score was -2.35.
L249W: the cAMP reporter score was -1.6 in data set [1] (pH 5.5); 0.492 in data set [1] (pH 6, modulator: ogerin); -1.24 in data set [1] (pH 6.5, modulator: ogerin).
As for L249N, the cAMP reporter score in data set [1] (pH 5.5) was -1.22; in data set [1] (pH 6.5, modulator: ogerin), -1.31. The surface expression score in data set [2] was -2.61.
With L249E, the cAMP reporter score in data set [1] (pH 5.5) is -1.06; in data set [1] (pH 6.5, modulator: ogerin) it was -1.91.
Regarding L249I, the cAMP reporter score in data set [1] (pH 5.5) is 0.595; in data set [1] (pH 6) it was -0.632; in data set [1] (pH 6, modulator: ogerin) it was 0.644; in data set [1] (pH 6.5, modulator: ogerin) it was 0.217. The surface expression score in data set [2] was -0.211.
For L249Y the same measures were 0.618, -0.267, -0.389, 0.041 and -0.256.
In the same order, the values of L247_L249del are -1.99, -1.25, -1.31, -1.54 and -1.82.
As to L247_L248insGSG, the cAMP reporter score in data set [1] (pH 5.5) was -2.25; in data set [1] (pH 6), -1.99; in data set [1] (pH 6, modulator: ogerin), -1.48; in data set [1] (pH 6.5, modulator: ogerin), -0.98. Further, the surface expression score in data set [2] was -2.27.
For L248_L249insG, the cAMP reporter score in data set [1] (pH 5.5) was -1.29; in data set [1] (pH 6), -0.631; in data set [1] (pH 6, modulator: ogerin), -1.06; in data set [1] (pH 6.5, modulator: ogerin) it was -0.547. Besides, the surface expression score in data set [2] is -2.63.
